This is one part of the list.
Legend:
Test in all cases: glycan array binding signal (z-score within array); higher = stronger binding
Settings in all cases: glycan notation: IUPAC condensed, linker removed
[1] = target: Neu5Ac(a2-3)GalNAc
Procedure, shortened: (§1)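 The binding signal is a Z-score computed within each array. Data were drawn from 3228 arrays in the Consortium for Functional Glycomics database, restricted to those with a known protein sequence. Scores were averaged over arrays of the same protein sequence at different concentrations or buffers, and over linkers, and negative values can be taken as non-binding.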

[2] = target: Neu5Ac(a2-3)GalNAc(b1-4)GlcNAc
Procedure, shortened: as §1

[3] = target: Neu5Ac(a2-3)[GalNAc(b1-4)]Gal(b1-4)Glc
Procedure, shortened: as §1

[4] = target: Neu5Ac(a2-3)[GalNAc(b1-4)]Gal(b1-4)GlcNAc
Procedure, shortened: as §1

[5] = target: Neu5Ac(a2-3)[GalNAc(b1-4)]Gal(b1-4)GlcNAc(b1-3)GalNAc
Procedure, shortened: as §1

[6] = target: Neu5Ac(a2-3)[Neu5Ac(a2-6)]GalNAc
Procedure, shortened: as §1

[7] = target: Neu5Ac(a2-6)Gal
Procedure, shortened: as §1

[8] = target: Neu5Ac(a2-6)Gal(b1-3)GlcNAc(b1-3)[Gal(b1-4)GlcNAc(b1-6)]Gal(b1-4)Glc
Procedure, shortened: as §1

[9] = target: Neu5Ac(a2-6)Gal(b1-4)Glc
Procedure, shortened: as §1

[10] = target: Neu5Ac(a2-6)Gal(b1-4)GlcNAc
Procedure, shortened: as §1

[11] = target: Neu5Ac(a2-6)Gal(b1-4)GlcNAc(b1-2)Man
Procedure, shortened: as §1

[12] = target: Neu5Ac(a2-6)Gal(b1-4)GlcNAc(b1-2)Man(a1-3)Man(b1-4)GlcNAc(b1-4)GlcNAc
Procedure, shortened: as §1

[13] = target: Neu5Ac(a2-6)Gal(b1-4)GlcNAc(b1-2)Man(a1-3)[Gal(b1-4)GlcNAc(b1-2)Man(a1-6)]Man(b1-4)GlcNAc(b1-4)GlcNAc
Procedure, shortened: as §1

[14] = target: Neu5Ac(a2-6)Gal(b1-4)GlcNAc(b1-2)Man(a1-3)[GlcNAc(b1-2)Man(a1-6)]Man(b1-4)GlcNAc(b1-4)GlcNAc
Procedure, shortened: as §1

[15] = target: Neu5Ac(a2-6)Gal(b1-4)GlcNAc(b1-2)Man(a1-3)[GlcNAc(b1-4)][Neu5Ac(a2-6)Gal(b1-4)GlcNAc(b1-2)Man(a1-6)]Man(b1-4)GlcNAc(b1-4)GlcNAc
Procedure, shortened: as §1

[16] = target: Neu5Ac(a2-6)Gal(b1-4)GlcNAc(b1-2)Man(a1-3)[Man(a1-6)]Man(b1-4)GlcNAc(b1-4)GlcNAc
Procedure, shortened: as §1

[17] = target: Neu5Ac(a2-6)Gal(b1-4)GlcNAc(b1-2)Man(a1-3)[Neu5Ac(a2-3)Gal(b1-4)GlcNAc(b1-2)Man(a1-6)]Man(b1-4)GlcNAc(b1-4)GlcNAc
Procedure, shortened: as §1

[18] = target: Neu5Ac(a2-6)Gal(b1-4)GlcNAc(b1-2)Man(a1-3)[Neu5Ac(a2-6)Gal(b1-4)GlcNAc(b1-2)Man(a1-6)]Man(b1-4)GlcNAc(b1-4)GlcNAc
Procedure, shortened: as §1

[19] = target: Neu5Ac(a2-6)Gal(b1-4)GlcNAc(b1-2)Man(a1-3)[Neu5Ac(a2-6)Gal(b1-4)GlcNAc(b1-2)Man(a1-6)]Man(b1-4)GlcNAc(b1-4)[Fuc(a1-6)]GlcNAc
Procedure, shortened: as §1

[20] = target: Neu5Ac(a2-6)Gal(b1-4)GlcNAc(b1-2)Man(a1-6)Man(b1-4)GlcNAc(b1-4)GlcNAc
Procedure, shortened: as §1

[21] = target: Neu5Ac(a2-6)Gal(b1-4)GlcNAc(b1-2)Man(a1-6)[Gal(b1-4)GlcNAc(b1-2)Man(a1-3)]Man(b1-4)GlcNAc(b1-4)GlcNAc
Procedure, shortened: as §1

[22] = target: Neu5Ac(a2-6)Gal(b1-4)GlcNAc(b1-2)Man(a1-6)[GlcNAc(b1-2)Man(a1-3)]Man(b1-4)GlcNAc(b1-4)GlcNAc
Procedure, shortened: as §1

[23] = target: Neu5Ac(a2-6)Gal(b1-4)GlcNAc(b1-2)Man(a1-6)[Man(a1-3)]Man(b1-4)GlcNAc(b1-4)GlcNAc
Procedure, shortened: as §1

[24] = target: Neu5Ac(a2-6)Gal(b1-4)GlcNAc(b1-2)[Neu5Ac(a2-6)Gal(b1-4)GlcNAc(b1-4)]Man(a1-3)[GlcNAc(b1-4)][Neu5Ac(a2-6)Gal(b1-4)GlcNAc(b1-2)[Neu5Ac(a2-6)Gal(b1-4)GlcNAc(b1-6)]Man(a1-6)]Man(b1-4)GlcNAc(b1-4)GlcNAc
Procedure, shortened: as §1

[25] = target: Neu5Ac(a2-6)Gal(b1-4)GlcNAc(b1-2)[Neu5Ac(a2-6)Gal(b1-4)GlcNAc(b1-4)]Man(a1-3)[GlcNAc(b1-4)][Neu5Ac(a2-6)Gal(b1-4)GlcNAc(b1-4)Man(a1-6)]Man(b1-4)GlcNAc(b1-4)GlcNAc
Procedure, shortened: as §1

[26] = target: Neu5Ac(a2-6)Gal(b1-4)GlcNAc(b1-2)[Neu5Ac(a2-6)Gal(b1-4)GlcNAc(b1-6)]Man(a1-6)[Neu5Ac(a2-6)Gal(b1-4)GlcNAc(b1-2)Man(a1-3)][GlcNAc(b1-4)]Man(b1-4)GlcNAc(b1-4)GlcNAc
Procedure, shortened: as §1

[27] = target: Neu5Ac(a2-6)Gal(b1-4)GlcNAc(b1-3)Gal(b1-3)GlcNAc
Procedure, shortened: as §1

[28] = target: Neu5Ac(a2-6)Gal(b1-4)GlcNAc(b1-3)Gal(b1-4)GlcNAc
Procedure, shortened: as §1

[29] = target: Neu5Ac(a2-6)Gal(b1-4)GlcNAc(b1-3)Gal(b1-4)GlcNAc(b1-2)Man(a1-3)[Neu5Ac(a2-6)Gal(b1-4)GlcNAc(b1-3)Gal(b1-4)GlcNAc(b1-2)Man(a1-6)]GalNAc
Procedure, shortened: as §1

[30] = target: Neu5Ac(a2-6)Gal(b1-4)GlcNAc(b1-3)Gal(b1-4)GlcNAc(b1-3)Gal(b1-4)GlcNAc
Procedure, shortened: as §1

[31] = target: Neu5Ac(a2-6)Gal(b1-4)GlcNAc(b1-3)Gal(b1-4)GlcNAc(b1-3)Gal(b1-4)GlcNAc(b1-2)Man(a1-3)[Neu5Ac(a2-6)Gal(b1-4)GlcNAc(b1-3)Gal(b1-4)GlcNAc(b1-3)Gal(b1-4)GlcNAc(b1-2)Man(a1-6)]GalNAc
Procedure, shortened: as §1

[32] = target: Neu5Ac(a2-6)Gal(b1-4)GlcNAc(b1-3)Gal(b1-4)GlcNAc(b1-3)GalNAc
Procedure, shortened: as §1

[33] = target: Neu5Ac(a2-6)Gal(b1-4)GlcNAc(b1-3)Gal(b1-4)GlcNAc(b1-3)[Neu5Ac(a2-6)Gal(b1-4)GlcNAc(b1-3)Gal(b1-4)GlcNAc(b1-6)]GalNAc
Procedure, shortened: as §1

[34] = target: Neu5Ac(a2-6)Gal(b1-4)GlcNAc(b1-3)Gal(b1-4)GlcNAc(b1-6)[Gal(b1-3)]GalNAc
Procedure, shortened: as §1

[35] = target: Neu5Ac(a2-6)Gal(b1-4)GlcNAc(b1-3)Gal(b1-4)[Fuc(a1-3)]GlcNAc(b1-3)Gal(b1-4)[Fuc(a1-3)]GlcNAc
Procedure, shortened: as §1

[36] = target: Neu5Ac(a2-6)Gal(b1-4)GlcNAc(b1-3)GalNAc
Procedure, shortened: as §1

[37] = target: Neu5Ac(a2-6)Gal(b1-4)GlcNAc(b1-3)[Neu5Ac(a2-6)Gal(b1-4)GlcNAc(b1-6)]GalNAc
Procedure, shortened: as §1

B1: PX14379A-bvu-539-28-539 (Bacteroides vulgatus) (protein)
chain: EPYSEIIEEDYVPTEADEIALLATTYSQLRFVMDWYGLFDLQEESGDVIVTPTRPNGWDDGGTYKQMHKHTWDNQQGQPQSIWDYCYKGIANANKILKRADEGFFTEESKPKVVAEVKGVRALWYSILCDTHGNIPIQTSFSEEVPVQSTRKQVFDFIINELKEVMPNLPTEVNKSTYGRLTQWGAKCLMARMYLNAGVYTGTPMWNECLEQCNDIINSGLFSLETNYTDIFKTENSGCVETIFAIPYDEVYNEGDNNGPVFGAHMKFLSSNSRKVFNMQTTPWGGSAANPQFINSYDPDDMRLKYTWLQGDQYSPDGVLITTFPNKLPSIYKTDTDDGYRVGKYEIKVGAKSLLSNDFPYFRYTEVLLMKAECLLRLGQNETEAAHIVSQIRERAFRESAHPEKATVDAAWLKGDTHINYGTLDEKGQIDDAGNTEVVELGGLYDEWGWEFAAEARRRTDMIRFGTYQKKSWFNHTPTANDLNGNSILFPIHLDHLNTNPNLQQNPGYAGK
glycan array binding signal (z-score) [1]: -0.249 | glycan array binding signal (z-score) [2]: 0.016 | glycan array binding signal (z-score) [3]: -0.297 | glycan array binding signal (z-score) [4]: -0.191 | glycan array binding signal (z-score) [5]: 0.886 | glycan array binding signal (z-score) [6]: -0.068 | glycan array binding signal (z-score) [7]: 0.024 | glycan array binding signal (z-score) [8]: -0.294 | glycan array binding signal (z-score) [9]: -0.294 | glycan array binding signal (z-score) [10]: 0.011 | glycan array binding signal (z-score) [11]: -0.559 | glycan array binding signal (z-score) [12]: -0.074 | glycan array binding signal (z-score) [13]: 0.14 | glycan array binding signal (z-score) [14]: -0.366 | glycan array binding signal (z-score) [15]: -0.434 | glycan array binding signal (z-score) [16]: -0.202 | glycan array binding signal (z-score) [17]: -0.144 | glycan array binding signal (z-score) [18]: -0.123 | glycan array binding signal (z-score) [19]: -0.29 | glycan array binding signal (z-score) [20]: -0.483 | glycan array binding signal (z-score) [21]: -0.47 | glycan array binding signal (z-score) [22]: -0.431 | glycan array binding signal (z-score) [23]: -0.299 | glycan array binding signal (z-score) [24]: -0.137 | glycan array binding signal (z-score) [25]: -0.196 | glycan array binding signal (z-score) [26]: -0.47 | glycan array binding signal (z-score) [27]: -0.087 | glycan array binding signal (z-score) [28]: -0.123 | glycan array binding signal (z-score) [29]: -0.103 | glycan array binding signal (z-score) [30]: -0.533 | glycan array binding signal (z-score) [31]: 0.07 | glycan array binding signal (z-score) [32]: -0.208 | glycan array binding signal (z-score) [33]: -0.191 | glycan array binding signal (z-score) [34]: -0.111 | glycan array binding signal (z-score) [35]: -0.295 | glycan array binding signal (z-score) [36]: -0.204 | glycan array binding signal (z-score) [37]: -0.287

Reference: the supplement of paper PMC8728848
